From the RNAGym collection of RNA variant scans (doi:10.7554/elife.90254)
Read counts are not given, so values of variants with three or more changes are uncertain.

B1: LINE1-mini (parent)
chain: GGCAGAGCUCAACACAGCGUGGCAAAGUGGCUGUGGCUAGACUGCC

Variants of: B1
Experiment: self-cleavage, relative activity (ratio to wild type); higher = more cleavage; in vitro, sequencing; the parent is a self-cleaving ribozyme

Variant	self-cleavage
A14G G29U C37A	0.01
A14C C15A U28A C42A	0.12
A14C U20G G36C	0
A14G C15G G33U	0.11
C13U U28A C31G C37U G40C	0.15
A14C U28A C31U	0.01
A14C G22U U34C C45G C46U	0.05
A14G A16C C23A G40A	0
C13U G27A C37A	0.07
A14C U20C C37U A41U	0
A14G G19A C42A	0.18
C13U G36U A39C C46A	0.01
A14U A16G G40C	0.02
A14C C31A A39U	0
A14G A41U C46U	0.32
A14G A16G G29U G40U	0.04
A14C U20A G22C G27A G29U C42U	0.02
A14G G29C C31G	0.01
A14C G21A C23U	0.07
A14C G33C G36A	0.05
C13U G27C U28C	0.13

Variant	self-cleavage
C13U U34G C46A	0
A14G G21A G29U	0.25
A14G C18U C45A	0.04
A14G C18U C45U	0
A14G G21U A25U U34G U38G U43A	0.01
A14G U38G C46A	0.02
A14G U20A G44C	0.36
C13U U28A G29U U43C	0.05
A14C A25C U28A G30A C31A G36U C37G	0.1
A14C C15A G22C A26U	0.03
A14G G19U A24G G35U A41C C45A	0.02
A14C G17A C45G	0.1
A14C A25C C31U G33C	0.04
A14C C23U G35C C37U A41C	0.01
A14U A16G G22A G36U U43C	0.02
A14C C18G A24U	0.08
A14C G19U A24U C45U	0.03
C13U G27C G29U	0.22
A14G G33C G44C	0
C13U U34A A41U	0.08
A14C A25C G33A U38C C45U	0.03

Variant	self-cleavage
C13U G29C C45A	0.23
A14G U20A A26C A39C C45U C46G	0.02
A14G G21C G22C G30U C31U	0.45
A14C C18A A25G	0.02
A14G A25C U28G	0.19
A14U A16G A26G U38G A41U U43A C46A	0.05
A14G C37U C46G	0.01
A14G U28A C31U	0.06
A14C C15A G19U G36A C37U	0.07
A14G G30A G40U	0.04
A14G G22A A24C A41C C46A	0.03
C13U G35C C37G	0.02
C13U G27A G44C C46A	0.05
A14U A16C A26C	0.01
A14C G35C G40U C45G	0.06
A14C U20A C37U	0.06
A14U A16U C18A A24U C42U	0.04
A14C U20A C42A	0.05
A14U A16U C46U	0.1
A14G G21U G29U	0.15
A14C C15A G29U C46A	0.3

Variant	self-cleavage
A14C G17C C31U G40C	0.01
A14C C18A U20C U34A	0.05
A14G U28A U43G	0
A14G U28A U43A	0.03
A14G G17C G29C C31G A39C	0.02
A14C C18A G19U G22C G30A C31G G36U	0.07
A14G G21U G33A	0.02
C13U U28G U38A A39G	0.07
C13U U34A A39U C45G	0.14
C13U U34G C42A	0.06
A14C C15A U32C	0.03
A14C A26G U32C U43C	0.1
A14C C18G A26U G40C	0.04
A14C U28C G36A	0.22
A14G G27C C37G	0.04
A14C A16U G30A G33U	0.11
A14C G27A U38A C42U	0.04
A14C A25U G40A	0.01
A14G U20C G21C G36A	0.05
C13U G22U G40U C42A	0.03
C13U G30U C31U A41U G44C	0.01
